From the supplement of paper PMC8728848
The other results are listed elsewhere or left out.

Experiments:
Experiment in all cases: glycan array binding signal (z-score within array); higher = stronger binding
Conditions in all cases: glycan notation: IUPAC condensed, linker removed
Gal(b1-3)GalNAc = target: Gal(b1-3)GalNAc
Procedure, shortened: (§1)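 Negative Z-scores can be read as non-binding. The Z-score is calculated within each array and then averaged across arrays of one protein sequence at different concentrations or buffers and across linkers. Arrays, 3228 in all, were curated from the Consortium for Functional Glycomics database and kept only where the protein sequence was available.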

[1] = target: Gal(b1-3)GalNAc(b1-3)Gal(a1-4)Gal(b1-4)Glc
Procedure, shortened: as §1

[2] = target: Gal(b1-3)GalNAc(b1-3)Gal(b1-4)Glc
Procedure, shortened: as §1

[3] = target: Gal(b1-3)GalNAc(b1-3)Gal(b1-4)GlcNAc
Procedure, shortened: as §1

[4] = target: Gal(b1-3)GalNAc(b1-4)Gal(b1-4)Glc
Procedure, shortened: as §1

[5] = target: Gal(b1-3)GalNAc(b1-4)[Neu5Ac(a2-3)]Gal(b1-4)Glc
Procedure, shortened: as §1

[6] = target: Gal(b1-3)GlcNAc(b1-3)Gal(b1-3)GlcNAc
Procedure, shortened: as §1

[7] = target: Gal(b1-3)[Fuc(a1-4)]GlcNAc
Procedure, shortened: as §1

[8] = target: Gal(b1-3)[Fuc(a1-4)]GlcNAc(b1-3)Gal(b1-3)[Fuc(a1-4)]GlcNAc
Procedure, shortened: as §1

[9] = target: Gal(b1-3)[Fuc(a1-4)]GlcNAc(b1-3)Gal(b1-4)GlcNAc
Procedure, shortened: as §1

[10] = target: Gal(b1-3)[Fuc(a1-4)]GlcNAc(b1-3)Gal(b1-4)[Fuc(a1-3)]GlcNAc
Procedure, shortened: as §1

[11] = target: Gal(b1-3)[GlcNAc(b1-6)]GalNAc
Procedure, shortened: as §1

[12] = target: Gal(b1-3)[GlcNAc(b1-6)]GlcNAc
Procedure, shortened: as §1

[13] = target: Gal(b1-3)[Neu5Ac(a2-6)]GalNAc
Procedure, shortened: as §1

[14] = target: Gal(b1-3)[Neu5Ac(a2-6)]GlcNAc
Procedure, shortened: as §1

[15] = target: Gal(b1-3)[Neu5Ac(a2-6)]GlcNAc(a1-4)Gal(b1-4)Glc
Procedure, shortened: as §1

[16] = target: Gal(b1-3)[Neu5Ac(b2-6)]GlcNAc
Procedure, shortened: as §1

[17] = target: Gal(b1-4)GalNAc(a1-3)[Fuc(a1-2)]Gal(b1-4)GlcNAc
Procedure, shortened: as §1

[18] = target: Gal(b1-4)GalNAc(b1-3)[Fuc(a1-2)]Gal(b1-4)GlcNAc
Procedure, shortened: as §1

Gal(b1-4)Glc = target: Gal(b1-4)Glc
Procedure, shortened: as §1

Gal(b1-4)Glc6S = target: Gal(b1-4)Glc6S
Procedure, shortened: as §1

Gal(b1-4)GlcNAc = target: Gal(b1-4)GlcNAc
Procedure, shortened: as §1

[19] = target: Gal(b1-4)GlcNAc(b1-2)Man(a1-3)[Gal(b1-4)GlcNAc(b1-2)Man(a1-6)]Man(b1-4)GlcNAc(b1-4)GlcNAc
Procedure, shortened: as §1

[20] = target: Gal(b1-4)GlcNAc(b1-3)Gal(b1-3)GlcNAc
Procedure, shortened: as §1

[21] = target: Gal(b1-4)GlcNAc(b1-3)Gal(b1-4)Glc
Procedure, shortened: as §1

[22] = target: Gal(b1-4)GlcNAc(b1-3)Gal(b1-4)GlcNAc
Procedure, shortened: as §1

[23] = target: Gal(b1-4)GlcNAc(b1-3)Gal(b1-4)GlcNAc(b1-3)Gal(b1-4)GlcNAc
Procedure, shortened: as §1

[24] = target: Gal(b1-4)GlcNAc(b1-3)Gal(b1-4)[Fuc(a1-3)]GlcNAc(b1-3)Gal(b1-4)[Fuc(a1-3)]GlcNAc
Procedure, shortened: as §1

[25] = target: Gal(b1-4)GlcNAc(b1-3)GalNAc
Procedure, shortened: as §1

[26] = target: Gal(b1-4)GlcNAc(b1-3)[Gal(b1-4)GlcNAc(b1-6)]GalNAc
Procedure, shortened: as §1

[27] = target: Gal(b1-4)GlcNAc(b1-6)GalNAc
Procedure, shortened: as §1

[28] = target: Gal(b1-4)GlcNAc(b1-6)[Gal(b1-3)]GalNAc
Procedure, shortened: as §1

[29] = target: Gal(b1-4)GlcNAc(b1-6)[Gal(b1-3)]GlcNAc
Procedure, shortened: as §1

Gal3S(b1-3)GalNAc = target: Gal3S(b1-3)GalNAc
Procedure, shortened: as §1

Gal3S(b1-3)GlcNAc = target: Gal3S(b1-3)GlcNAc
Procedure, shortened: as §1

[30] = target: Gal3S(b1-3)[Fuc(a1-4)]GlcNAc
Procedure, shortened: as §1

Gal3S(b1-4)Glc = target: Gal3S(b1-4)Glc
Procedure, shortened: as §1

Gal3S(b1-4)Glc6S = target: Gal3S(b1-4)Glc6S
Procedure, shortened: as §1

Gal3S(b1-4)GlcNAc = target: Gal3S(b1-4)GlcNAc
Procedure, shortened: as §1

Gal3S(b1-4)GlcNAc6S = target: Gal3S(b1-4)GlcNAc6S
Procedure, shortened: as §1

Gal3S6S(b1-4)GlcNAc = target: Gal3S6S(b1-4)GlcNAc
Procedure, shortened: as §1

Gal3S6S(b1-4)GlcNAc6S = target: Gal3S6S(b1-4)GlcNAc6S
Procedure, shortened: as §1

Gal4S(b1-4)GlcNAc = target: Gal4S(b1-4)GlcNAc
Procedure, shortened: as §1

Gal4S6S(b1-4)GlcNAc = target: Gal4S6S(b1-4)GlcNAc
Procedure, shortened: as §1

Gal6S(b1-4)Glc = target: Gal6S(b1-4)Glc
Procedure, shortened: as §1

Gal6S(b1-4)Glc6S = target: Gal6S(b1-4)Glc6S
Procedure, shortened: as §1

Gal6S(b1-4)GlcNAc = target: Gal6S(b1-4)GlcNAc
Procedure, shortened: as §1

GalNAc(a1-3)Gal = target: GalNAc(a1-3)Gal
Procedure, shortened: as §1

GalNAc(a1-3)GalNAc = target: GalNAc(a1-3)GalNAc
Procedure, shortened: as §1

[31] = target: GalNAc(b1-3)Gal(a1-4)Gal(b1-4)GlcNAc
Procedure, shortened: as §1

GalNAc(b1-4)GlcNAc = target: GalNAc(b1-4)GlcNAc
Procedure, shortened: as §1

Glc(a1-4)Glc = target: Glc(a1-4)Glc
Procedure, shortened: as §1

Glc(a1-6)Glc(a1-6)Glc = target: Glc(a1-6)Glc(a1-6)Glc
Procedure, shortened: as §1

Glc(b1-4)Glc = target: Glc(b1-4)Glc
Procedure, shortened: as §1

Glc(b1-6)Glc = target: Glc(b1-6)Glc
Procedure, shortened: as §1

GlcA(b1-3)Gal = target: GlcA(b1-3)Gal
Procedure, shortened: as §1

GlcA(b1-6)Gal = target: GlcA(b1-6)Gal
Procedure, shortened: as §1

[32] = target: GlcNAc(a1-3)Gal(b1-4)GlcNAc
Procedure, shortened: as §1

[33] = target: GlcNAc(a1-6)Gal(b1-4)GlcNAc
Procedure, shortened: as §1

[34] = target: GlcNAc(b1-2)Gal(b1-3)GlcNAc
Procedure, shortened: as §1

B1: DC SIGN CRD (Homo sapiens), Q9NNX6 (protein)
chain: QPCPWEWTFFQGNCYFMSNSQRNWHDSITACKEVGAQLVVIKSAEEQNFLQLQSSRSNRFTWMGLSDLNQEGTWQWVDGSPLLPSFKQYWNRGEPNNVGEEDCAEFSGNGWNDDKCNLAKFWICKKSAWSHPQFEK
Gal(b1-3)GalNAc
  glycan array binding signal (z-score): -0.358
[1]
  glycan array binding signal (z-score): -0.334
[2]
  glycan array binding signal (z-score): -0.091
[3]
  glycan array binding signal (z-score): -0.378
[4]
  glycan array binding signal (z-score): -0.385
[5]
  glycan array binding signal (z-score): -0.363
[6]
  glycan array binding signal (z-score): -0.388
[7]
  glycan array binding signal (z-score): 1.6
[8]
  glycan array binding signal (z-score): 1.08
[9]
  glycan array binding signal (z-score): 0.259
[10]
  glycan array binding signal (z-score): 1.3
[11]
  glycan array binding signal (z-score): -0.35
[12]
  glycan array binding signal (z-score): -0.386
[13]
  glycan array binding signal (z-score): -0.369
[14]
  glycan array binding signal (z-score): -0.387
[15]
  glycan array binding signal (z-score): -0.385
[16]
  glycan array binding signal (z-score): -0.355
[17]
  glycan array binding signal (z-score): -0.381
[18]
  glycan array binding signal (z-score): -0.358
Gal(b1-4)Glc
  glycan array binding signal (z-score): -0.391
Gal(b1-4)Glc6S
  glycan array binding signal (z-score): -0.032
Gal(b1-4)GlcNAc
  glycan array binding signal (z-score): -0.382
[19]
  glycan array binding signal (z-score): -0.394
[20]
  glycan array binding signal (z-score): -0.358
[21]
  glycan array binding signal (z-score): -0.393
[22]
  glycan array binding signal (z-score): -0.395
[23]
  glycan array binding signal (z-score): -0.401
[24]
  glycan array binding signal (z-score): 0.041
[25]
  glycan array binding signal (z-score): -0.398
[26]
  glycan array binding signal (z-score): -0.376
[27]
  glycan array binding signal (z-score): -0.391
[28]
  glycan array binding signal (z-score): -0.395
[29]
  glycan array binding signal (z-score): -0.395
Gal3S(b1-3)GalNAc
  glycan array binding signal (z-score): -0.399
Gal3S(b1-3)GlcNAc
  glycan array binding signal (z-score): -0.378
[30]
  glycan array binding signal (z-score): 1.42
Gal3S(b1-4)Glc
  glycan array binding signal (z-score): 0.003
Gal3S(b1-4)Glc6S
  glycan array binding signal (z-score): -0.083
Gal3S(b1-4)GlcNAc
  glycan array binding signal (z-score): -0.388
Gal3S(b1-4)GlcNAc6S
  glycan array binding signal (z-score): 0.091
Gal3S6S(b1-4)GlcNAc
  glycan array binding signal (z-score): -0.35
Gal3S6S(b1-4)GlcNAc6S
  glycan array binding signal (z-score): -0.14
Gal4S(b1-4)GlcNAc
  glycan array binding signal (z-score): -0.361
Gal4S6S(b1-4)GlcNAc
  glycan array binding signal (z-score): -0.397
Gal6S(b1-4)Glc
  glycan array binding signal (z-score): -0.387
Gal6S(b1-4)Glc6S
  glycan array binding signal (z-score): -0.268
Gal6S(b1-4)GlcNAc
  glycan array binding signal (z-score): -0.39
GalNAc(a1-3)Gal
  glycan array binding signal (z-score): -0.373
GalNAc(a1-3)GalNAc
  glycan array binding signal (z-score): -0.293
[31]
  glycan array binding signal (z-score): -0.289
GalNAc(b1-4)GlcNAc
  glycan array binding signal (z-score): -0.367
Glc(a1-4)Glc
  glycan array binding signal (z-score): -0.391
Glc(a1-6)Glc(a1-6)Glc
  glycan array binding signal (z-score): -0.4
Glc(b1-4)Glc
  glycan array binding signal (z-score): -0.38
Glc(b1-6)Glc
  glycan array binding signal (z-score): -0.396
GlcA(b1-3)Gal
  glycan array binding signal (z-score): -0.383
GlcA(b1-6)Gal
  glycan array binding signal (z-score): -0.392
[32]
  glycan array binding signal (z-score): -0.29
[33]
  glycan array binding signal (z-score): -0.397
[34]
  glycan array binding signal (z-score): -0.382
